Results as given in the supplement of paper PMC10126150.
Values marked as one replicate rest on one cluster of the flow cell; about a third of the high ones do not repeat.

Tested on: ATP
Test: switch fluorescence ratio, 500 uM ATP over buffer (Cy3 cluster intensity, sum of 5 cycles each) (fold (ratio)); higher = stronger signal-on switching upon ATP binding; sequences stand for … in TCGTCGGCAGCGTCAGATGTGTATAAGAGACAGTTTTTTTTTTTTTTTTTTTTTTTTT…TC
Conditions: aptamer strand: ATP DNA aptamer (quencher-CACCTGGGGGAGTATTGCGGAGGAAGG + anchor), 100 nM annealed; ATP concentration: 500 uM; one replicate
Outline: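 For every switch-domain sequence, the fluorescence ratio is the mean of per-cluster values, each being summed target-cycle Cy3 intensity over summed buffer-cycle Cy3 intensity. Clusters outside 100-1000 RFU were excluded. On a modified Illumina MiSeq flow-cell, the Cy3-labelled switching-strand clusters were annealed to 100 nM quencher-labelled ATP aptamer, imaged in selection buffer and then after 15 min with 500 uM ATP at 22 °C. Five such cycles were run, with NaOH stripping and re-annealing between them.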
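Note: ATP exposure 15 min at 22 °C before imaging.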

Sequence | switch fluorescence ratio
AATGAGCGCC | 1
GCCCGTAATA | 5.32
ATACTGGTCC | 1.04
GATCCTCGAG | 1.05
CCTGCTGCAG | 1.32
AGCCTAGTGT | 1.02
CCGATTTTAA | 1.31
GCTCGAAATA | 1.45
GCGTAAGGGA | 1.05
TAATGATCGT | 0.982
TGGAACTATT | 0.998
TTAACAATAT | 1.06
ATTTCGGGGG | 0.987
TGTGGAGGGG | 0.932
CTTGGATCCC | 0.962
CTATTCATAG | 1.03
TTGGCTGCAT | 1.01
CTTATAGGTT | 1.01
CATGGGTTCA | 1.02
TACCGGACC | 1.45
TTGCATGTGC | 1.25
GCATTTCTTG | 1.03
ATATTTAAAT | 1.14

Sequence | switch fluorescence ratio
TAGATGTCA | 1.06
TGTGGCTGGT | 0.959
TTAATAATGC | 1.29
GTGGGATTTC | 0.972
CTATTCCGAC | 1.55
TGTTTCTAGA | 0.988
ACGGCTGAGA | 1.03
GGGAAAATTG | 1.04
CTGGCTCCTT | 1.01
GATACGGCAG | 1
AATGTCTAGT | 1.01
AATTGCGCAA | 1.01
AAAACACAA | 1.02
GTCAATAACG | 1.04
CGACACTAAC | 1.81
GTGGGTGGAG | 0.985
AGTCGTGCG | 0.987
CCAGGAGAGC | 1.13
AATAGAGAGC | 0.91
CTGCTGGGCC | 1.07
TTCGGGTAGC | 1.02
AAGGTTCAGT | 1
ACGAATATAG | 1.01

Sequence | switch fluorescence ratio
TCCATCTCTC | 1.01
GGACAGAGGC | 1.03
TAGAATGGGC | 0.983
AGTTGACAAC | 0.937
CTCGTGATTA | 1.04
TGAATTTGCC | 0.99
TTAATGGGGA | 1.06
GCTATACCCC | 2.45
TGAGGCTTTG | 0.984
ATGCCAGCAA | 2.19
GGGCTTAGCG | 0.98
CGTTACAGC | 1
TGCATCCTTA | 0.946
GTAGATTCAC | 1.01
GGTTTGTCCT | 0.987
GACTAGTTGC | 1
TATATGTTTG | 1.11
ATGCTAATCT | 1.01
ACAGTCG | 1.02
GGAGCAAGTT | 1.91
CCTCTTCGGC | 1.05
CGCGTTCCGG | 1.01
ACATTTACCG | 1.22

Sequence | switch fluorescence ratio
GTGTAAAGTA | 0.977
CGGTATAACC | 1.02
GCATTCATAG | 1.01
TTGACTATCC | 1.06
CAAGGGAAAC | 1.04
TCAGCGCCTG | 0.986
GGGAGTTCCC | 1.05
TATTCACTAT | 1.07
TTCGACAAAA | 1.32
CGTTAAGTAA | 1.03
CATCATGGGA | 1.03
AAGGGGCAC | 0.991
GAATTACGGA | 1.06
TTCGATTCCT | 1.02
AGTGTTAAAA | 0.997
GGCTCCAAGG | 1.03
TTTGGGTAT | 1.01
TTGGGGACAG | 0.943
CACAGTTGTC | 0.925
GGATTCGCTG | 0.979
ACGCCCTCTT | 1.1
ATAGATACTT | 0.979
TCGAGGAGTC | 0.992

Sequence | switch fluorescence ratio
TAACATTGCA | 0.996
ATTGAAGATC | 0.957
GTTCCTTCTT | 1.08
TGAAAAGTCC | 1.02
CACCGGTCAC | 1.27
TTACGGCCTC | 1
AACAAAGTGT | 0.948
AATCGCTGGA | 0.966
TCGTACTTTC | 1.07
GCCACAACCG | 1.08
AAGTAAATCA | 0.979
AGTGTTCAAG | 0.97
ACTTACAGTG | 1.13
TGGAGCCGCA | 0.991
ACACAGTGGT | 1.08
CGTTTACCTC | 0.943
TTGCTCTAGG | 1.03
TCTTGGGTCT | 1.01
GTCAACCTTT | 1
GAGTGAGGCT | 0.981
AGGCCTCCGT | 1.44
CAGCGTAAAT | 1.03
GATTTGTGA | 1.04

Sequence | switch fluorescence ratio
TAGCTGGTAT | 0.975
AATAGTCCTC | 0.996
TTCCACTTAG | 1.05
CAATGTCTG | 0.988
CCAGCAACGT | 1.09
GCAGTGATCA | 1.03
TCAGCCTCA | 0.974
GCCCCGCCAA | 1.1
GTATAGTCAG | 0.995
GCGCACGTGA | 1.01
CGTTCTTAGC | 1.03
AAGTTAGTGT | 1.01
TGCGATTGAA | 1.01
TAAATAATGT | 1.03
GCTTGCGCAG | 1.05
ACAGTGTATT | 0.994
AAACGAACAA | 1.14
TACTCTGGAG | 0.997
ATTGAGTTAA | 1
TCGCTGCCCG | 1.03
TAACATTAGC | 1.01
GGCATATGGA | 1.03
TATGGACGCG | 1.01

Sequence | switch fluorescence ratio
CGTGGCAG | 0.953
TGTCGTAGT | 0.948
CACGGTCTTA | 1.05
AATTGGTTAT | 1
CCGCTATCGG | 1.61
GTGAAAGTTG | 1.11
CGTCTTAGTC | 1.04
GAGGCCCTGG | 1.04
AAGCAGTCTG | 1.03
GTATAACCGG | 0.957
TCCGGCTTTT | 0.991
ATTTGCTTGG | 1
AGGCTACCAA | 1.05
TAGGGGCATG | 0.999
TAATTTGCTA | 0.992
GGGTTGTACG | 1.08
ACTATCTCAA | 1.06
ATCCCGGCCT | 1.04
CCGTTAGACC | 1.57
